Assay results reported in PMC4737136.
Results are given in words; binding and its absence hold for the method and conditions named. In cells and extracts the contact can be indirect. Some binding calls cover weakened binding; strength is not graded here. For some of these results: Tags and fused reporters may be left off the sequences shown. Blank lines part the entries; values can stand above or below the molecule they belong to.

By UniProt entry, the sequences of proteins in these tests, tags left out.
UniProt P51003: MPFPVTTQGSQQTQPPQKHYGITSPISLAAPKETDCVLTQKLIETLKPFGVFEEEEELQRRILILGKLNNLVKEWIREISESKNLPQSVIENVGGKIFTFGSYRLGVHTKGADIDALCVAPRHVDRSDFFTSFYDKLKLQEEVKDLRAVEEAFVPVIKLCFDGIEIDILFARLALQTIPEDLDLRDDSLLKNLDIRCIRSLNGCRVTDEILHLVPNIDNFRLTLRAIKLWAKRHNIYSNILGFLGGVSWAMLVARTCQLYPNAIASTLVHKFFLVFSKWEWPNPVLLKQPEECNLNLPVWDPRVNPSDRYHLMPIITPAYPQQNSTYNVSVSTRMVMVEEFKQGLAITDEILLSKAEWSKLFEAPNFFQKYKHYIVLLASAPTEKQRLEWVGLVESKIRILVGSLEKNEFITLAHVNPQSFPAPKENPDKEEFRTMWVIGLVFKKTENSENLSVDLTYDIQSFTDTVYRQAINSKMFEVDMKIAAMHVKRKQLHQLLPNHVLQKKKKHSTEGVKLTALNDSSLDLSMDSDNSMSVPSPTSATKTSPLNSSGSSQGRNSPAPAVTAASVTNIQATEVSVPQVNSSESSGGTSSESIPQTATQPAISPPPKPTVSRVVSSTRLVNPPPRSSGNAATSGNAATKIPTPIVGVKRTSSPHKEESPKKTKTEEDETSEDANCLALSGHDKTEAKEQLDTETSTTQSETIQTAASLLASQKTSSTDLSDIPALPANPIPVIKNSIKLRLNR
UniProt O95639: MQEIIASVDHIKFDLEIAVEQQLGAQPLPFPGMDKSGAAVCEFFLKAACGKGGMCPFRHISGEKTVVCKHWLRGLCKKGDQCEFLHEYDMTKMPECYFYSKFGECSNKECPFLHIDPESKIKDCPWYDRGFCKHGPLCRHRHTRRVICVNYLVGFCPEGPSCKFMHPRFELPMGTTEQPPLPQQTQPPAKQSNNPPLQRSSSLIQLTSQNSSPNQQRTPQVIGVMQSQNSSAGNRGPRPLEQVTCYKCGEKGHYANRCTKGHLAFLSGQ
UniProt Q99755: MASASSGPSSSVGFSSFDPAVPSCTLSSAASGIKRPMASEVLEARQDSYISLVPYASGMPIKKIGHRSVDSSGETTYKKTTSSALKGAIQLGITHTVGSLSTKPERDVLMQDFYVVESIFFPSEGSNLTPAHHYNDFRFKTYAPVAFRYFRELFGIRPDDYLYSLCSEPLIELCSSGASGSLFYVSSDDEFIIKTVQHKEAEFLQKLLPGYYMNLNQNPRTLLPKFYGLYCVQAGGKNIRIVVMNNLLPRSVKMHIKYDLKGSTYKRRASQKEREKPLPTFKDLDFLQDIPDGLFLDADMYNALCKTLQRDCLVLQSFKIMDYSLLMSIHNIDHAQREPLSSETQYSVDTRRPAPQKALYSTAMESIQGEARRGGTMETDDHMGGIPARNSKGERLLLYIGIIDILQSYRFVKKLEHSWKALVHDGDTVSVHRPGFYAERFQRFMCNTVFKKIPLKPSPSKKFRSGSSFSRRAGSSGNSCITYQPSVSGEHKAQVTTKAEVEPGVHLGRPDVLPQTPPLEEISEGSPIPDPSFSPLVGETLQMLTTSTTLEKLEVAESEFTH

Assays:
GST-PAPα [1] = target: GST-PAPα (UniProt P51003); test: pull-down; GST-Star-PAP or GST-PAPα immobilised on glutathione-sepharose beads, pull-down from HEK 293 cell lysates; buffers with protease inhibitor cocktail, DNase I and RNase A; immunoblot; no competitor added; only the target purified
[2] = target: T1, GST-Star-PAP (Speckle targeted PIPKIα regulated poly (A) polymerase) (UniProt Q9H6E5); test: as above
T1 sequence: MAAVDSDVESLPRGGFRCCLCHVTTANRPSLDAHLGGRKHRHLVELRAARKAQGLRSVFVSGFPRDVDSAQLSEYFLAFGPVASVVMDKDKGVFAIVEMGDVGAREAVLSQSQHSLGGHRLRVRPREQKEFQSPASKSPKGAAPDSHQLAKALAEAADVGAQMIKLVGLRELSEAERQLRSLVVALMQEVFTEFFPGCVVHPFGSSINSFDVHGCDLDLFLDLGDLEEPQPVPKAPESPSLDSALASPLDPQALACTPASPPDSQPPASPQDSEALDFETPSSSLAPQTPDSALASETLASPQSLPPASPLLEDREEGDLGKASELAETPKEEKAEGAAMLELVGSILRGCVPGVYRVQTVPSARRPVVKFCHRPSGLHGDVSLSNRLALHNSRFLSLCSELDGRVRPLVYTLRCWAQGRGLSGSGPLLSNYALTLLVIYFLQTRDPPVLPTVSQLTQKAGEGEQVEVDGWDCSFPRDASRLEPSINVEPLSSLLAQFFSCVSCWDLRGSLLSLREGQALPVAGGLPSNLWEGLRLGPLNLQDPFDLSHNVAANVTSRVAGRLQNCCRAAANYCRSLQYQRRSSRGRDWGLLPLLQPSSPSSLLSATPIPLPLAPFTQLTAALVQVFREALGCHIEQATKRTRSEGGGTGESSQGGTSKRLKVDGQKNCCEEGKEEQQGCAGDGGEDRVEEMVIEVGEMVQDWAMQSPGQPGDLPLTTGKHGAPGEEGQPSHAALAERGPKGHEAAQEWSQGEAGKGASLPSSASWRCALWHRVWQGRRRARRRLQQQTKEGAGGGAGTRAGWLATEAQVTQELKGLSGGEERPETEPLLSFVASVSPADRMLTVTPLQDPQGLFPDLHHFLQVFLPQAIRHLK

GST-PAPα [3] = target: GST-PAPα (UniProt P51003); test: pull-down; GST-Star-PAP, GST-PAPα or control GST on glutathione-sepharose beads, pull-down from HEK 293 cell lysates with increasing additions (0, 12.5, 25, 50, 100, 200 nM) of recombinant His-PAPα or His-Star-PAP as competitor; DNase I and RNase A; immunoblot; only the target purified
[4] = target: T1, GST-Star-PAP (Speckle targeted PIPKIα regulated poly (A) polymerase); test: as above

Molecule: CPSF-30 (cleavage and polyadenylation specificity factor 30 kilodalton subunit) (from UniProt O95639 1-269)
binding (GST-PAPα [1]): binds
binding [2]: binds

B2: CPSF-73 (cleavage and polyadenylation specificity factor 73 kilodalton subunit) (protein, UniProt Q9UKF6 1-684)
chain: MSAIPAEESDQLLIRPLGAGQEVGRSCIILEFKGRKIMLDCGIHPGLEGMDALPYIDLIDPAEIDLLLISHFHLDHCGALPWFLQKTSFKGRTFMTHATKAIYRWLLSDYVKVSNISADDMLYTETDLEESMDKIETINFHEVKEVAGIKFWCYHAGHVLGAAMFMIEIAGVKLLYTGDFSRQEDRHLMAAEIPNIKPDILIIESTYGTHIHEKREEREARFCNTVHDIVNRGGRGLIPVFALGRAQELLLILDEYWQNHPELHDIPIYYASSLAKKCMAVYQTYVNAMNDKIRKQININNPFVFKHISNLKSMDHFDDIGPSVVMASPGMMQSGLSRELFESWCTDKRNGVIIAGYCVEGTLAKHIMSEPEEITTMSGQKLPLKMSVDYISFSAHTDYQQTSEFIRALKPPHVILVHGEQNEMARLKAALIREYEDNDEVHIEVHNPRNTEAVTLNFRGEKLAKVMGFLADKKPEQGQRVSGILVKRNFNYHILSPCDLSNYTDLAMSTVKQTQAIPYTGPFNLLCYQLQKLTGDVEELEIQEKPALKVFKNITVIQEPGMVVLEWLANPSNDMYADTVTTVILEVQSNPKIRKGAVQKVSKKLEMHVYSKRLEIMLQDIFGEDCVSVKDDSILSVTVDGKTANLNLETRTVECEEGSEDDESLREMVELAAQRLYEALTPVH
binding (GST-PAPα [1]): no binding
binding [2]: binds

B3: CPSF-160 (cleavage and polyadenylation specificity factor 160 kilodalton subunit) (protein, UniProt Q10570 1-1443)
chain: MYAVYKQAHPPTGLEFSMYCNFFNNSERNLVVAGTSQLYVYRLNRDAEALTKNDRSTEGKAHREKLELAASFSFFGNVMSMASVQLAGAKRDALLLSFKDAKLSVVEYDPGTHDLKTLSLHYFEEPELRDGFVQNVHTPRVRVDPDGRCAAMLVYGTRLVVLPFRRESLAEEHEGLVGEGQRSSFLPSYIIDVRALDEKLLNIIDLQFLHGYYEPTLLILFEPNQTWPGRVAVRQDTCSIVAISLNITQKVHPVIWSLTSLPFDCTQALAVPKPIGGVVVFAVNSLLYLNQSVPPYGVALNSLTTGTTAFPLRTQEGVRITLDCAQATFISYDKMVISLKGGEIYVLTLITDGMRSVRAFHFDKAAASVLTTSMVTMEPGYLFLGSRLGNSLLLKYTEKLQEPPASAVREAADKEEPPSKKKRVDATAGWSAAGKSVPQDEVDEIEVYGSEAQSGTQLATYSFEVCDSILNIGPCANAAVGEPAFLSEEFQNSPEPDLEIVVCSGHGKNGALSVLQKSIRPQVVTTFELPGCYDMWTVIAPVRKEEEDNPKGEGTEQEPSTTPEADDDGRRHGFLILSREDSTMILQTGQEIMELDTSGFATQGPTVFAGNIGDNRYIVQVSPLGIRLLEGVNQLHFIPVDLGAPIVQCAVADPYVVIMSAEGHVTMFLLKSDSYGGRHHRLALHKPPLHHQSKVITLCLYRDLSGMFTTESRLGGARDELGGRSGPEAEGLGSETSPTVDDEEEMLYGDSGSLFSPSKEEARRSSQPPADRDPAPFRAEPTHWCLLVRENGTMEIYQLPDWRLVFLVKNFPVGQRVLVDSSFGQPTTQGEARREEATRQGELPLVKEVLLVALGSRQSRPYLLVHVDQELLIYEAFPHDSQLGQGNLKVRFKKVPHNINFREKKPKPSKKKAEGGGAEEGAGARGRVARFRYFEDIYGYSGVFICGPSPHWLLVTGRGALRLHPMAIDGPVDSFAPFHNVNCPRGFLYFNRQGELRISVLPAYLSYDAPWPVRKIPLRCTAHYVAYHVESKVYAVATSTNTPCARIPRMTGEEKEFETIERDERYIHPQQEAFSIQLISPVSWEAIPNARIELQEWEHVTCMKTVSLRSEETVSGLKGYVAAGTCLMQGEEVTCRGRILIMDVIEVVPEPGQPLTKNKFKVLYEKEQKGPVTALCHCNGHLVSAIGQKIFLWSLRASELTGMAFIDTQLYIHQMISVKNFILAADVMKSISLLRYQEESKTLSLVSRDAKPLEVYSVDFMVDNAQLGFLVSDRDRNLMVYMYLPEAKESFGGMRLLRRADFHVGAHVNTFWRTPCRGATEGLSKKSVVWENKHITWFATLDGGIGLLLPMQEKTYRRLLMLQNALTTMLPHHAGLNPRAFRMLHVDRRTLQNAVRNVLDGELLNRYLYLSTMERSELAKKIGTTPDIILDDLLETDRVTAHF
binding (GST-PAPα [1]): binds
binding [2]: binds
binding (GST-PAPα [3]): binds
binding [4]: binds

More lines, now with the values ahead:

binding (GST-PAPα [1]): no binding
binding [2]: binds
Molecule: phosphatidyl-inositol-4-phosphate-5-kinase type Iα (PIPKIα) (from UniProt Q99755 1-562) (enzyme)

binding (GST-PAPα [1]): binds
binding (GST-PAPα [3]): binds
binding [4]: no binding
B1: hFIP1 (protein, UniProt Q6UN15 1-594)
chain: MSAGEVERLVSELSGGTGGDEEEEWLYGGPWDVHVHSDLAKDLDENEVERPEEENASANPPSGIEDETAENGVPKPKVTETEDDSDSDSDDDEDDVHVTIGDIKTGAPQYGSYGTAPVNLNIKTGGRVYGTTGTKVKGVDLDAPGSINGVPLLEVDLDSFEDKPWRKPGADLSDYFNYGFNEDTWKAYCEKQKRIRMGLEVIPVTSTTNKITAEDCTMEVTPGAEIQDGRFNLFKVQQGRTGNSEKETALPSTKAEFTSPPSLFKTGLPPSRNSTSSQSQTSTASRKANSSVGKWQDRYGRAESPDLRRLPGAIDVIGQTITISRVEGRRRANENSNIQVLSERSATEVDNNFSKPPPFFPPGAPPTHLPPPPFLPPPPTVSTAPPLIPPPGFPPPPGAPPPSLIPTIESGHSSGYDSRSARAFPYGNVAFPHLPGSAPSWPSLVDTSKQWDYYARREKDRDRERDRDRERDRDRDRERERTRERERERDHSPTPSVFNSDEERYRYREYAERGYERHRASREKEERHRERRHREKEETRHKSSRSNSRRRHESEEGDSHRRHKHKKSKRSKEGKEAGSEPAPEQESTEATPAE
